SMILES strings stand for the structures. Hit rate of the full screen: of about 310,000 compounds, about 14,000 (4.5%) showed an effect of 50% or more. Effects have a minus sign here. Some of the results follow.
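Also: peak tail current of the secondary pulse compared with the same well before compound.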

The target of the assay is human ether-à-go-go-related gene (hERG) potassium channel (human, UniProt Q12809). Nature of the assay: primary screen, population patch clamp on CHO cells stably expressing hERG.
human ether-à-go-go-related gene (hERG) potassium channel, sequence (Q12809 whole entry, looked up): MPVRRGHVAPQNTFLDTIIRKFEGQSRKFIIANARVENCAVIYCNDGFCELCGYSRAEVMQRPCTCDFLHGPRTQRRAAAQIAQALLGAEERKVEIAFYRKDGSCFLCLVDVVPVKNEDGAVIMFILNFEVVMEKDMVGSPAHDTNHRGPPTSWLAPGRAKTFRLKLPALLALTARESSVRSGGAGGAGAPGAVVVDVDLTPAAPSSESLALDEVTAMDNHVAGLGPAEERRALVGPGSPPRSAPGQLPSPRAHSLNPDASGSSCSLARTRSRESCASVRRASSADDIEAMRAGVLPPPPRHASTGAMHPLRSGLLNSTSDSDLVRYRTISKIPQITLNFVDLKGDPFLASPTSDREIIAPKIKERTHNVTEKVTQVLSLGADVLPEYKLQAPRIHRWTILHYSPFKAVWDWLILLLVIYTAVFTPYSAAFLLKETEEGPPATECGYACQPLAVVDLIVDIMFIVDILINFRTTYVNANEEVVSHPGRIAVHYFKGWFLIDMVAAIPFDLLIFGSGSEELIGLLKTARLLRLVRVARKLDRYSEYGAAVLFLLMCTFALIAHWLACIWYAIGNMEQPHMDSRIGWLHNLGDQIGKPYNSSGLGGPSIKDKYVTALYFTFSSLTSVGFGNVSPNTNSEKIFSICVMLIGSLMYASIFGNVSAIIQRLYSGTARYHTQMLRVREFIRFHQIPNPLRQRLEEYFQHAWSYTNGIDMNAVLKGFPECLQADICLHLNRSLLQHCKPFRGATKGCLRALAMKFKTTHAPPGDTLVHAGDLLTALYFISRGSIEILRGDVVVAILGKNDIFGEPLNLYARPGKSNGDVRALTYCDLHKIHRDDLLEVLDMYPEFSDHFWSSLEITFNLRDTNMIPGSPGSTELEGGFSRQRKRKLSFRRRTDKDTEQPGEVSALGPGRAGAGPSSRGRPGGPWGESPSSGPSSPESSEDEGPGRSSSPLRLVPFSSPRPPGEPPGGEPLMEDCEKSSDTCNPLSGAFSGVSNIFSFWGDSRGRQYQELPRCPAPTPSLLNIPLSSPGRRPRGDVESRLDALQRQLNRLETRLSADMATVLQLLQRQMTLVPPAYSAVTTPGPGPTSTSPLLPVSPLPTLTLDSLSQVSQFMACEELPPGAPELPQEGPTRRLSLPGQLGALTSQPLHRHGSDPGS
For `CCOC(=O)CN1C(=O)S/C(=C/C=C/c2ccc(N(C)C)cc2)C1=O`, the “hERG current change (%, negative = inhibition) at 10uM” value worked out at 6.59%.

With `O=C(Cc1ccccc1)Nc1nnc(SCC(=O)NC2CCCC2)s1`, the “hERG current change (%, negative = inhibition) at 10uM” value is given as 11.2%. `Cc1cc(/C=C2\SC(=S)NC2=O)c(C)[nH]1`: the “hERG current change (%, negative = inhibition) at 10uM” value is -1.33%. `Cn1c(CN2CCCCC2)nc2cc(NC(=O)c3ccc(F)cc3)ccc21`: the “hERG current change (%, negative = inhibition) at 10uM” value is -54.2%.

In the case of `CCn1c(CN2CCN(CCO)CC2)nc2ccccc21`, the “hERG current change (%, negative = inhibition) at 10uM” value came out at 5.04%. The figure for `O=C(CN(CC1CCCO1)C(=O)CCC(=O)Nc1nccs1)NCc1ccc2c(c1)OCO2` (centres unmarked) is 11.9%; for `CC(Oc1ccc2ccc(=O)oc2c1)C(=O)NC1CCN(Cc2ccccc2)CC1` (centres unmarked) it is -75%. Under `Cc1c(C(N)=O)sc2ncn(CC(=O)N(C)C3CCCCC3)c(=O)c12` stands 5.49%. Under `N#CCCn1nc(-c2ccccc2)cc1-n1c(C(F)(F)F)nc2ccccc21` stands 2.55%.

On to `COC(=O)c1ccccc1NC(=O)Cn1cnc2c1c(=O)n(C)c(=O)n2C`, for which the “hERG current change (%, negative = inhibition) at 10uM” value was -0.222%. In the case of `CCOC(=O)c1c(S(=O)(=O)NCCCc2ccco2)c(C)n(C)c1C`, the “hERG current change (%, negative = inhibition) at 10uM” value is -5.65%.

With `O=C(NCC1COc2ccccc2O1)C1C2C=CC3(CN(Cc4cccs4)C(=O)C13)O2` (centres unmarked), the “hERG current change (%, negative = inhibition) at 10uM” value is -31%. The figure for `C=C1C[C@H]2[C@@H]3CCc4cc(OC)ccc4[C@H]3CC[C@]12C` is 5.67%; for `COc1ccc(-c2csc(-n3cccn3)n2)cc1` it is 21.4%. The figure for `Cc1nc(SCC(=O)NC(=O)NCc2ccco2)nc(C)c1C` is 6.48%; for `CCN(CC)C(=O)Cn1cc(C(=O)C(=O)NCCCn2ccnc2)c2ccccc21` it is 27.8%. Take `COc1ccc(Br)cc1/C=N/n1c(-c2ccccc2)n[nH]c1=S`: the “hERG current change (%, negative = inhibition) at 10uM” value amounted to 22.1%. The figure for `CCOC(=O)C1=C(COC(=O)COc2cccc(C)c2C)NC(=O)NC1C` (centres unmarked) is -1.45%; for `O=C(O)c1cccnc1SCc1cccc(Cl)c1` it is 11.7%; for `CC(C)(C)OC(=O)N1CCC[C@H]1C(=O)Nc1ccc(C#N)cc1` it is -10.3%. Consider `Cc1ccc(C(=O)NCCNS(=O)(=O)c2ccccc2[N+](=O)[O-])cc1`, for which the “hERG current change (%, negative = inhibition) at 10uM” value is reported as 12.2%. The figure for `Cc1c(C(=O)NCC2COc3ccccc3O2)oc2ccc(S(=O)(=O)N3CCOCC3)cc12` (centres unmarked) is -34.4%. Under `CCN(CC(=O)NC1CCS(=O)(=O)C1)C(=O)c1cc(OC)c(OC)c(OC)c1` (centres unmarked) stands -1.08%. The figure for `CCN(C(C)=O)c1nc(CCl)cs1` is 9.14%; for `CC(C)(C)NC(=O)COc1ccc(CNCc2ccccn2)cc1.Cl` it is 1.82%.

As to `Cc1ccc(Cc2nc3ccccc3[nH]2)cc1`, the “hERG current change (%, negative = inhibition) at 10uM” value is reported as 7.94%.

With `Cc1cc(C(C)(C)C)ccc1OCCn1ccnc1.O=C(O)C(=O)O`, the “hERG current change (%, negative = inhibition) at 10uM” value was -2.35%. For the compound `CCOC(=O)N1CCN(C(=O)CSc2nc(=O)n3cccc(C)c3n2)CC1`, the “hERG current change (%, negative = inhibition) at 10uM” value was -27.5%.

Turning to `Cc1cc(N2CCOCC2)nc2ccc(NC(=O)CCC(=O)N3CCN(c4cccc(C(F)(F)F)c4)CC3)cc12`, the “hERG current change (%, negative = inhibition) at 10uM” value was -6.4%. The figure for `C/C(=C\c1ccccc1)CN1CCN(c2ccccc2)CC1` is -3.31%; for `N#CC1(NC(=O)CSc2nnc(-c3ccccc3F)o2)CCCCC1` it is -13.1%; for `Cc1ccc(C2CC(=O)NC3=C2C(=O)CCC3)cc1Br` (centres unmarked) it is 1.35%. The figure for `CN(CC(=O)Nc1ccccc1Cl)C(=O)c1ccc(COc2ccccc2)cc1` is -12.9%.

In the case of `COc1cc(NC(=O)c2cc(Cl)ccc2Cl)ccc1-c1cc2ccccc2oc1=O`, the “hERG current change (%, negative = inhibition) at 10uM” value is reported as -8.22%.

`Cc1ccccc1Oc1cc(NC(=O)CCCn2nc(C)c([N+](=O)[O-])c2C)cc([N+](=O)[O-])c1`: the “hERG current change (%, negative = inhibition) at 10uM” value amounted to 7.73%. Under `COc1ccccc1/C=N/OC(=O)c1ccc(F)cc1` stands -8.71%; under `CCOc1ccc(CCNC(=O)C2CCCN(c3nn4c(=O)cc(C)nc4s3)C2)cc1OCC` (centres unmarked), 0.321%; under `Cc1ccc(NC(=O)CCS(=O)(=O)c2cc3c(cc2Cl)NC(=O)CO3)cc1`, -17.4%. The figure for `COc1cccc(-c2noc(C3CCCN(C(=O)c4ccccc4OC)C3)n2)c1` (centres unmarked) is -2.8%; for `NC(=O)C1CCCc2c1n(Cc1ccccc1)c1ccccc21` (centres unmarked) it is -14.7%; for `O=C(CNC(=O)c1sc2ccccc2c1Cl)NCc1ccccc1` it is 10.9%.

For `Cc1ccc(CNC(=O)c2cnc(-c3ccccn3)nc2C(F)(F)F)cc1`, the “hERG current change (%, negative = inhibition) at 10uM” value turned out to be 7.39%. The figure for `Cc1ccc(C(=O)CSc2nc(C)cc(SCc3nnc(-c4ccccc4)o3)n2)cc1` is 10.1%; for `O=C(c1ccccc1)c1ccc(-c2ccc(O)cc2)cc1` it is 10.1%; for `CC(C)N(Cc1nc(-c2ccccc2)no1)C(=O)c1ccc2c(c1)OCO2` it is -17.4%. Under `Cn1c2ccccc2c2c(C(=O)N3CCN(c4ccccc4)CC3)cn(C3CCCC3)c(=O)c21` stands -14.5%. The figure for `CC(=O)NCCCc1nc2ccccc2n1Cc1cc(C)ccc1C` is -14.5%; for `O=C(Nc1cc2c(ccc3ccccc32)oc1=O)C1CCCCC1` it is -12%; for `CCN(CC)c1ccc(Nc2nc(N3CCOCC3)c3ccccc3n2)cc1` it is -71.8%. Take `Cc1nc(/N=C(\N)NC(=O)c2ccccc2)nc2ccccc12`: the “hERG current change (%, negative = inhibition) at 10uM” value was 0.75%.

As for `O=C1Nc2ccc(Br)cc2C1Cc1ccccc1F` (centres unmarked), the “hERG current change (%, negative = inhibition) at 10uM” value was -11.2%. The figure for `O=c1c2cc3ccccc3n2cnn1Cc1ccccc1F` is -19%; for `COc1ccc2ccc(OCC(=O)N3c4ccccc4NC(=O)CC3C)cc2c1` (centres unmarked) it is -21.2%; for `COc1ccc(C(=O)Nc2sc(C)c(C)c2CN2CCOCC2)cc1` it is 18%. Under `Cc1cc(Cl)ccc1OCC(=O)NCC(=O)N/N=C/c1ccco1` stands 11.9%. Under `O=C1CCN(S(=O)(=O)c2ccc(Cl)cc2)CC1` stands 4.82%.

These data come from article PMC4336329 (PLoS ONE, 2015).
